Laboratory results reported in PMC4336329 (PLoS ONE, 2015).
In all, about 310,000 compounds went through this assay and about 2,200 (0.71%) showed an effect of 50% or more. The effect is printed as a negative number. The list shows a part of the results.

target: human ether-à-go-go-related gene (hERG) potassium channel (human, UniProt Q12809); experiment: primary screen, population patch clamp on CHO cells stably expressing hERG
Sequence (Q12809 whole entry, looked up): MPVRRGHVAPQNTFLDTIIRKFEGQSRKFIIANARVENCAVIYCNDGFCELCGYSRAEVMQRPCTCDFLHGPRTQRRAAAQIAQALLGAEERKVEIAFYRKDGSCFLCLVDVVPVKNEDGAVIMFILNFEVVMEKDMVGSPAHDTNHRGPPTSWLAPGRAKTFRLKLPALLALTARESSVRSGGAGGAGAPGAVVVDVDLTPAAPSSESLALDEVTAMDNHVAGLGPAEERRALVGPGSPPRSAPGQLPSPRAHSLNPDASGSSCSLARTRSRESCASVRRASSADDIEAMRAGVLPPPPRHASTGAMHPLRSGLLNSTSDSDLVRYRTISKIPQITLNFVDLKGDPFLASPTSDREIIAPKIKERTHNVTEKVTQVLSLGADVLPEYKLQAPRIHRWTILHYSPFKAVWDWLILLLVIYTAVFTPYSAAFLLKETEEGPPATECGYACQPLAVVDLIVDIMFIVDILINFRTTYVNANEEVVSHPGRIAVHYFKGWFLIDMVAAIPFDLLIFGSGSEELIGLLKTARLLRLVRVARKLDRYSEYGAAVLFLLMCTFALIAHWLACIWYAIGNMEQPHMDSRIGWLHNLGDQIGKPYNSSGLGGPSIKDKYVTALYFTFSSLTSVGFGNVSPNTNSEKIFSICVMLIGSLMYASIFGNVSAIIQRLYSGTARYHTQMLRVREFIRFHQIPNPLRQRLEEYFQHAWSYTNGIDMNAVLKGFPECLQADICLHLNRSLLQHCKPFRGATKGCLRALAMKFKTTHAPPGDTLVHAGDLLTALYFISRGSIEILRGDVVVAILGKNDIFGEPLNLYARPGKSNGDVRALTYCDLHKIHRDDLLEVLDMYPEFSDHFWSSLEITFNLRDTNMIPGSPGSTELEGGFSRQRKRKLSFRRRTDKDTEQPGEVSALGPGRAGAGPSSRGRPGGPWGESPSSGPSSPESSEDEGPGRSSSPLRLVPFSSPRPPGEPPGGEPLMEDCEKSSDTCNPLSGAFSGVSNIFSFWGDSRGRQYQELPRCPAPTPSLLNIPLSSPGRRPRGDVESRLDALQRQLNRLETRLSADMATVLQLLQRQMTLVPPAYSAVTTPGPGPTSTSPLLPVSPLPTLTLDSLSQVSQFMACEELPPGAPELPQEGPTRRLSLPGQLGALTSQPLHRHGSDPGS

Structure (SMILES)	hERG current change (%, negative = inhibition) at 1uM [%]
CC(=O)c1ccc(NS(=O)(=O)c2cccc(C(=O)Nc3ccccc3C(=O)O)c2)cc1	11.4
Cc1ccc(-n2nc(C)c3c(C)c(CCC(=O)NCc4ccco4)c(C)nc32)cc1	5.19
CC(=O)N/C(=C\c1ccccc1)C(=O)OCC(=O)N1CCCCCC1	7.65
COc1ccc(C(=O)Oc2cc(/C=N/NS(=O)(=O)c3ccc(C)cc3)ccc2OC)cc1	12.2
CC(C)C(NC(=O)c1ccc(F)cc1)C(=O)N1CCOCC1 (centres unmarked)	12.3
COc1ccc(NC(=S)N(CCO)Cc2ccccc2)cc1	6.21
CCCNC(=O)c1ccccc1NC(=O)Cc1ccc(OC)c(S(=O)(=O)N2CCOCC2)c1	-3.17
CCOC(=O)C1C(=O)OC(C)(C)C1C(CC)C(=O)c1ccccc1 (centres unmarked)	6.46
COc1cc(/C=C2\SC(c3ccc(C)cc3)=NC2=O)ccc1O	-3.46
CN(CCc1ccccc1)Cc1nc(-c2cnccn2)no1	21.3
Br.N=c1n(CCN2CCCCC2)c2ccccc2n1CC(=O)c1cccc([N+](=O)[O-])c1	-36.6
O=C(c1ccco1)N1CCCC(c2nc3c(nnn3Cc3ccc(F)cc3)c(=O)[nH]2)C1 (centres unmarked)	1.6
Cc1cc2oc(C(=O)Nc3nonc3C)c(C)c2cc1C	7.76
O=C(c1ccccc1Cl)N1CCCC(c2nc3c(nnn3Cc3ccccc3)c(=O)[nH]2)C1 (centres unmarked)	-8.97
CCOc1ccccc1C(=O)N(Cc1ccco1)C1CCS(=O)(=O)C1 (centres unmarked)	3.29
CCN(CC)CCCNC(=O)CN1C(=O)CSc2ccc(S(=O)(=O)N3CCOCC3)cc21	-4.23
COc1cccc(-c2nc(-c3ccc(Br)o3)no2)c1	13
Cn1c(=O)c2c(SCC(=O)NCCc3ccccc3)nc(C3CC3)nc2n(C)c1=O	6.15
COc1ccc(CN2CCN(S(=O)(=O)c3ccc(NC(C)=O)cc3)CC2)cc1.O=C(O)C(=O)O	5.18
Cc1ccc(-c2ccccc2NC(=O)CCl)o1	3.98
COc1ccc(N2CCN(C(=O)C34CCC(C)(C(=O)C3)C4(C)C)CC2)cc1 (centres unmarked)	0.667
O=C(CCN1C(=O)[C@@H]2Cc3ccccc3CN2C1=O)Nc1cccc(F)c1	18

Structure (SMILES)	hERG current change (%, negative = inhibition) at 1uM [%]
CC1CCC(NC(=O)CCNS(=O)(=O)c2ccccc2)CC1 (centres unmarked)	8.01
COCCNC(=O)CN(C(=O)Cn1nnc2ccccc21)c1ccc(C)c(F)c1	11
COc1ccc(/C=N/NC(=O)c2cccnc2)cc1CN1CCOCC1	11.4
CCOC(=O)C1CCN(C(=O)CCn2c(=O)[nH]c3ccsc3c2=O)CC1	5.9
COc1ccc(-c2csc(N(Cc3ccco3)C(=O)c3cccs3)n2)cc1	2.71
CC(C)N1CCN(Cc2ccc3nsnc3c2)CC1CCO (centres unmarked)	12.1
CCOC(=O)C1=C(C)Nc2ccc(C)cc2S1	12
CNc1nnc(C(F)(F)F)s1	14.9
C/C(=N\NC(=O)Cn1cc([N+](=O)[O-])cn1)c1ccc(O)cc1	-1.75
O=C(Nc1ccccc1Oc1ccccc1)C1CCCC1	18.4
O=C(NCc1ccc2c(c1)OCO2)C1CCN(C(=O)Nc2ccc(Cl)cc2)CC1	-5.19
C#CCOCCOCCOCCNc1nc(N2CCN(C(=O)[C@H]([C@@H](C)CC)n3cc([C@@H](N)Cc4ccc(O)cc4)nn3)CC2)nc(N2CCN(C(=O)[C@H](Cc3cc4ccccc4[nH]3)n3cc([C@@H](N)C(C)CC)nn3)CC2)n1.Cl (some centres unmarked)	8.93
Cc1ccc2c(c1)N(CC(=O)NCCCN1CCCCC1C)C(=O)c1cccnc1O2 (centres unmarked)	13.2
CCOC(=O)CNC(=O)Cn1cnc2sc(C)c(S(=O)(=O)N3CCOCC3)c2c1=O	15.2
COc1cccc(/C=N/NC(=O)c2c(C)nc3ccc(Cl)cn23)c1OC	19.7
N#Cc1ccc(-c2cn(-c3ccccc3)c3[n+]2CCCS3)cc1.[Br-]	13.9
COc1ccc(-n2c(C)cc(/C=N/Nc3nc(N4CCOCC4)nc(N4CCOCC4)n3)c2C)cc1	4.59
CCCCN(C1CCS(=O)(=O)C1)S(=O)(=O)c1cccs1 (centres unmarked)	5.63
CS(=O)(=O)N(Cc1ccccc1)c1ccccn1	16.3
COc1ccc(CCNC(=O)C2CCC(CNc3c(N4CCCC4)c(=O)c3=O)CC2)cc1OC (centres unmarked)	11.5
C/C(CC(=O)Nc1ccc(Cl)cc1C(F)(F)F)=N\NC(=O)c1cccs1	1.13
COc1cc(C(=O)Nc2nc(-c3cc(C)ccc3C)c(C)s2)ccc1OCC(=O)Nc1ccc(F)cc1	3.66

Structure (SMILES)	hERG current change (%, negative = inhibition) at 1uM [%]
COc1cc(C2=NOC(C(=O)N3CCCCCC3)C2)cc(OC)c1OC (centres unmarked)	7.02
O=C(NCC1CCCO1)c1cncc(Br)c1 (centres unmarked)	15.2
c1ccc2c(CNCCN3CCOCC3)cccc2c1	6.83
COC(=O)[C@H](CCSC)NC(=O)NCCc1ccccc1F	7.86
COc1ccc(NC2CCCN(C(=O)CN3CCOC3=O)C2)cc1OC (centres unmarked)	9.15
COc1ccc(-c2oc3ncnc(NCCCO)c3c2-c2ccc(OC)cc2)cc1	9.83
Cn1cc(C(=O)N2CCCCC2)c(=O)c2cc(S(=O)(=O)N3CCCC3)ccc21	15.6
CCCN1CCN(C(=O)CN2C(=O)COc3ccc(S(=O)(=O)N(CC)CC)cc32)CC1	16.2
Cc1nn(C)c(C)c1S(=O)(=O)NC1CCCc2ccccc21 (centres unmarked)	4.33
Cc1ccc(C(=O)C2(C)N(O)C(C)C(c3cccs3)=[N+]2[O-])cc1 (centres unmarked)	8.7
CC(Sc1nnc(N)s1)C(=O)Nc1nccs1 (centres unmarked)	12.7
COc1ccc(C(=O)C2CCCN(Cc3ccc(C)s3)C2)c(OC)c1 (centres unmarked)	-2.87
c1coc(-c2nc(-c3ccco3)c(-c3ccco3)nc2-c2ccco2)c1	4.93
O=C(O)C1CC=CCC1C(=O)NCc1ccccc1 (centres unmarked)	-2
CCOC(=O)CCC(NC(=O)c1ccc(NCN2C(=O)c3ccccc3C2=O)cc1)C(=O)OCC (centres unmarked)	9.84
O=C1OCCC1Sc1nc2cc(Cl)ccc2s1 (centres unmarked)	2.87
CC(C)Cc1nnc(NC(=O)c2cc(-c3ccccc3)nc3ccccc23)s1	14.2
Cc1ccc(C(=O)OCn2nnc3ccccc3c2=O)cc1[N+](=O)[O-]	9.93
COc1cc(C(=O)Nc2ccc(S(=O)(=O)N3CCc4ccccc43)cc2)cc(OC)c1OC	9.53
O=C(c1ccc(Cl)c(S(=O)(=O)Nc2ccccc2C(=O)N2CCc3ccccc3C2)c1)N1CCc2ccccc2C1	14.7
Cc1ccc(Oc2nccc(-c3ccc(Cl)cc3)n2)cc1	17.4
c1ccc2ncc(-n3cnnn3)cc2c1	12.6

Structure (SMILES)	hERG current change (%, negative = inhibition) at 1uM [%]
O=C(N/N=C/c1ccc(O)cc1)c1nc(-c2ccccc2)n(-c2ccccc2)n1	0.583
CCN(C(=O)COC(=O)c1cc([N+](=O)[O-])ccc1N1CCOCC1)c1ccccc1	-7.18
CN(C)C(=O)Oc1ccc2c(c1)O/C(=C\c1cccc([N+](=O)[O-])c1)C2=O	12.3
COC(=O)COc1ccc(=O)n(-c2ccccc2)n1	6.13
COc1ccc(NC(=O)Cn2c(=O)sc3ccccc32)cc1	3.38
Cc1cc(C)c(CSc2ncnc3nc[nH]c23)c(C)c1	1.08
O=C1[N-]C(=O)C(c2ccccc2)(c2ccccc2)N1.[Na+]	11.6
O=C(c1cccs1)c1coc2ccc(O)c(CN3CCOCC3)c12	-9.55
CCOC(=O)C1(Cc2cccc(OC)c2)CCN(CC(O)CO)CC1 (centres unmarked)	8.94
CCC(=O)Oc1ccc2c(c1)OC1(OC(C)=O)OC(C)CC1=C2C (centres unmarked)	8.94
CCc1c(O)nc(SCC(=O)Nc2nc3ccccc3s2)n(-c2ccc(C)cc2)c1=O	9.57
COc1cccc(NC(=O)COc2nc3ccccc3nc2C)c1	10.2
COc1cc(/C=C2/C(=O)N(c3cccc(Br)c3)N=C2C)cc(OC)c1O	15.3
CC1CCCN(CCOc2cccc(Oc3ccccc3)c2)C1.O=C(O)C(=O)O (centres unmarked)	7.11
Cc1ccc(C(=O)NC(=S)N2CCCC2)cc1	13.4
CCCCn1nnc(NC(=O)c2ccc([N+](=O)[O-])cc2Cl)n1	-2.81
CO/N=C/c1ccc(Oc2ccc([N+](=O)[O-])cc2[N+](=O)[O-])c(OC)c1	11.5
O=C(CCNS(=O)(=O)c1ccccc1)N1CCOCC1	16.5
CCOc1ccc(S(=O)(=O)N2CCC(C(=O)OC(C)C(=O)N(C)C3CCCCC3)CC2)cc1 (centres unmarked)	0.0103
N#Cc1nc(-c2ccccc2F)oc1NCCc1ccccn1	1.93
